The values below come from the BET-seq Pho4 binding data (Le et al. 2018).

The other results are listed elsewhere or left out. The energies were worked out here from pooled read counts, against the library average; single values are noisy.

In the assay the target is T1, Pho4 (S. cerevisiae) (UniProt P07270).
T1 sequence: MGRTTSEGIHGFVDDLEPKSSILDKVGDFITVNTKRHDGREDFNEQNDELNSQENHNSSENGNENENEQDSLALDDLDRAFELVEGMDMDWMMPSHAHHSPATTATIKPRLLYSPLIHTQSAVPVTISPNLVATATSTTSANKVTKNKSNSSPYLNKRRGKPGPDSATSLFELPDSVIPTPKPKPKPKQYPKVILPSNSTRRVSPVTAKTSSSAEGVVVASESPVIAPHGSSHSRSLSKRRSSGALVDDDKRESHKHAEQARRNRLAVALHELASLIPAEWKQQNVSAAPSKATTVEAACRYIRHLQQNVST
The assay can be described thus: relative binding free energy (BET-seq); higher = weaker binding. Conditions: reference: library average.
As to AGGTTCACGTGCAGTA, the “relative binding free energy” value came out at 0.15 kcal/mol. In the case of AGTGCCACGTGCAGGT, the “relative binding free energy” value was -0.16 kcal/mol. The value for TGCGTCACGTGTACGT was 0.05 kcal/mol; that for TGGGACACGTGATCTG was -0.01 kcal/mol. On to CTACGCACGTGGTGGG, for which the “relative binding free energy” value was -0.35 kcal/mol. The value for TGCTTCACGTGATGTG was 0.34 kcal/mol; that for CGGGTCACGTGTTAGG was 0.14 kcal/mol; that for AATGTCACGTGGTTCT was 0.05 kcal/mol.

For TCGGGCACGTGGGGAC, the “relative binding free energy” value is -0.21 kcal/mol.

With GGTTTCACGTGAGAAA, the “relative binding free energy” value came out at 0.39 kcal/mol.

Turning to TTCGTCACGTGGTTTA, the “relative binding free energy” value is -0.04 kcal/mol. With AATTTCACGTGGGAGA, the “relative binding free energy” value came out at 0.16 kcal/mol. On to TACAGCACGTGGTATG, for which the “relative binding free energy” value was -0.09 kcal/mol.

For the sequence GTTGGCACGTGGCTGT, the “relative binding free energy” value was -0.16 kcal/mol. The value for TTGTGCACGTGAGTTA was 0.29 kcal/mol; that for ATTAGCACGTGATGGG was 0.04 kcal/mol; that for CTGAGCACGTGTTATG was -0.05 kcal/mol. As to CGGAGCACGTGTGTTT, the “relative binding free energy” value is -0.01 kcal/mol. Regarding TAGGACACGTGTTGAG, the “relative binding free energy” value is 0.15 kcal/mol. Turning to GGCGGCACGTGGGATT, the “relative binding free energy” value was -0.06 kcal/mol. On to GATTGCACGTGGCCGG, for which the “relative binding free energy” value is 0.09 kcal/mol. As for AATAGCACGTGGTCAT, the “relative binding free energy” value was -0.08 kcal/mol. In the case of ATTGCCACGTGTGGAG it was -0.07 kcal/mol. Consider TTATGCACGTGTAGCG, for which the “relative binding free energy” value turned out to be 0.07 kcal/mol. In the case of TTTTTCACGTGGGACG it was 0.26 kcal/mol; in that of GGGTTCACGTGGCTGC, 0.28 kcal/mol. Take AGGATCACGTGTGTCG: the “relative binding free energy” value amounted to 0.09 kcal/mol. The value for GGCGTCACGTGGGGTT was 0.02 kcal/mol. Consider AGGGTCACGTGTCATG, for which the “relative binding free energy” value was found to be 0.04 kcal/mol.

In the case of CAGTGCACGTGATTGG, the “relative binding free energy” value amounted to 0.15 kcal/mol. In the case of TGACACACGTGTGGTA it was -0.02 kcal/mol; in that of ATTGTCACGTGGCGGG, 0.03 kcal/mol. For ATTTACACGTGTGTGT, the “relative binding free energy” value worked out at 0.08 kcal/mol.

As to TATTGCACGTGTTGGG, the “relative binding free energy” value was -0.05 kcal/mol.

In the case of ATTCACACGTGGTATG, the “relative binding free energy” value is -0.02 kcal/mol. For the sequence CGGTACACGTGCGGTG, the “relative binding free energy” value worked out at 0.01 kcal/mol. Take GTGATCACGTGTCGGT: the “relative binding free energy” value came out at 0.07 kcal/mol. On to GGGGGCACGTGCTCGT, for which the “relative binding free energy” value was -0.23 kcal/mol. For the sequence TGGGGCACGTGGTCGG, the “relative binding free energy” value was -0.21 kcal/mol.

On to TGTCGCACGTGAAATT, for which the “relative binding free energy” value turned out to be 0.29 kcal/mol. Turning to TGGCGCACGTGAGGTA, the “relative binding free energy” value was 0.17 kcal/mol.

Turning to TGTGACACGTGTGGAC, the “relative binding free energy” value turned out to be 0.14 kcal/mol. AGGTGCACGTGACTGG: the “relative binding free energy” value is 0.09 kcal/mol. With ATGATCACGTGGTAGT, the “relative binding free energy” value came out at 0.14 kcal/mol. For TCCGTCACGTGGGTTT, the “relative binding free energy” value is -0.04 kcal/mol.

As for GGTTCCACGTGTTTTG, the “relative binding free energy” value is 0.13 kcal/mol. Turning to TATTTCACGTGTACGT, the “relative binding free energy” value stood at 0.16 kcal/mol. In the case of TATACCACGTGGAGGT, the “relative binding free energy” value was 0.02 kcal/mol. Turning to GGCGCCACGTGTGTGT, the “relative binding free energy” value was found to be 0.01 kcal/mol. Consider TTTTTCACGTGACCTT, for which the “relative binding free energy” value came out at 0.29 kcal/mol. In the case of TGGGTCACGTGAGATG it was 0.35 kcal/mol; in that of ATTAGCACGTGGTGAT, -0.05 kcal/mol. TGTGACACGTGGGGCA: the “relative binding free energy” value was -0.28 kcal/mol.

Regarding TATGGCACGTGGCAGT, the “relative binding free energy” value was -0.17 kcal/mol.

Consider CTTGGCACGTGCAGTT, for which the “relative binding free energy” value came out at 0.04 kcal/mol. As for AGTCTCACGTGTGGGC, the “relative binding free energy” value was found to be 0.2 kcal/mol. AAAGTCACGTGCGGTT: the “relative binding free energy” value amounted to 0.16 kcal/mol. For the sequence AGCGACACGTGGGTTC, the “relative binding free energy” value turned out to be 0.11 kcal/mol. Regarding TGGGTCACGTGGTATA, the “relative binding free energy” value was 0.05 kcal/mol. As to TATGTCACGTGGGAAC, the “relative binding free energy” value was found to be 0.11 kcal/mol.

With GTCTACACGTGAGTAT, the “relative binding free energy” value amounted to 0.36 kcal/mol. On to TGAAGCACGTGTTGTC, for which the “relative binding free energy” value was -0.05 kcal/mol. Consider GATGCCACGTGGGGTT, for which the “relative binding free energy” value is -0.1 kcal/mol. Regarding TTATACACGTGTTCTG, the “relative binding free energy” value is -0.24 kcal/mol. Consider GGGATCACGTGTTGGC, for which the “relative binding free energy” value was 0.26 kcal/mol. The value for ATGATCACGTGTGCGT was -0.04 kcal/mol; that for GGGATCACGTGATTTG was 0.49 kcal/mol; that for GGTTGCACGTGGCAAT was -0.08 kcal/mol. Take ACCTGCACGTGGGGGG: the “relative binding free energy” value was -0.03 kcal/mol. AGGTGCACGTGTTGAT: the “relative binding free energy” value is -0.06 kcal/mol. For the sequence GGTTCCACGTGTATAT, the “relative binding free energy” value was determined as 0.11 kcal/mol. For the sequence ATTGTCACGTGGGACA, the “relative binding free energy” value was -0.2 kcal/mol. The value for TTCTTCACGTGCGATG was 0.24 kcal/mol. Regarding CTTCTCACGTGTTAGG, the “relative binding free energy” value worked out at 0.24 kcal/mol. The value for GAAAGCACGTGAGTCG was 0.34 kcal/mol; that for TGACGCACGTGATTGG was -0.09 kcal/mol; that for CGGTACACGTGTTGTT was 0.24 kcal/mol. In the case of TTTGTCACGTGCGCGG, the “relative binding free energy” value amounted to 0 kcal/mol.

Consider GTAATCACGTGAGCGT, for which the “relative binding free energy” value was determined as 0.32 kcal/mol. With GTAGTCACGTGTTGGC, the “relative binding free energy” value is 0.22 kcal/mol. As for TGAGTCACGTGTAATT, the “relative binding free energy” value was found to be 0.13 kcal/mol. Regarding AAAGTCACGTGGGTCG, the “relative binding free energy” value was determined as 0.1 kcal/mol.

For GTAGGCACGTGTTATA, the “relative binding free energy” value is -0.04 kcal/mol. Take GATGGCACGTGGAAGT: the “relative binding free energy” value amounted to 0.03 kcal/mol.

For ATAGGCACGTGTTAAG, the “relative binding free energy” value was -0.08 kcal/mol. For ATTTGCACGTGTAGGC, the “relative binding free energy” value was found to be 0.07 kcal/mol. Consider GTGGGCACGTGAGTCA, for which the “relative binding free energy” value worked out at 0.1 kcal/mol. For TTAGTCACGTGCTGCT, the “relative binding free energy” value came to 0.02 kcal/mol. In the case of AAGATCACGTGAGGGT, the “relative binding free energy” value is 0.4 kcal/mol. ATAAACACGTGTTAGG: the “relative binding free energy” value was found to be 0 kcal/mol. With AAATGCACGTGTTTCT, the “relative binding free energy” value came out at 0.02 kcal/mol. As for AGAGGCACGTGAAGGG, the “relative binding free energy” value is 0.02 kcal/mol.

With TGGGGCACGTGACCGA, the “relative binding free energy” value was 0.06 kcal/mol. For TTTTACACGTGAGCGA, the “relative binding free energy” value was determined as 0.23 kcal/mol. The value for TGCATCACGTGTTAAT was 0.17 kcal/mol; that for TAGGGCACGTGACTGG was -0.05 kcal/mol.

In the case of AGTTTCACGTGTATTC, the “relative binding free energy” value stood at 0.22 kcal/mol. Regarding TTACGCACGTGTAGGA, the “relative binding free energy” value is -0.1 kcal/mol. Turning to ATTCACACGTGTGTTA, the “relative binding free energy” value is 0.19 kcal/mol. TTAGACACGTGGGTTT: the “relative binding free energy” value is -0.07 kcal/mol. Take CAGGTCACGTGTTGAT: the “relative binding free energy” value worked out at 0.12 kcal/mol. For the sequence TTGGGCACGTGCATGC, the “relative binding free energy” value is -0.14 kcal/mol. For ATTGACACGTGGTGAA, the “relative binding free energy” value is -0.13 kcal/mol.

Regarding GGGGGCACGTGAGGGA, the “relative binding free energy” value turned out to be 0.18 kcal/mol. In the case of GTGAACACGTGGTAAA, the “relative binding free energy” value stood at 0.14 kcal/mol. In the case of GGTTGCACGTGGCGCA it was -0.01 kcal/mol; in that of GCGGGCACGTGGGGTT, -0.19 kcal/mol; in that of GAGTGCACGTGATGGA, 0.17 kcal/mol. On to AGGCGCACGTGAGGGG, for which the “relative binding free energy” value was found to be 0.13 kcal/mol. In the case of TCGCTCACGTGTTTGT it was 0.24 kcal/mol. On to ATGTGCACGTGCGATA, for which the “relative binding free energy” value was -0.04 kcal/mol. Take CGGGTCACGTGAAATT: the “relative binding free energy” value worked out at 0.48 kcal/mol.

As for CTTGGCACGTGGAATT, the “relative binding free energy” value stood at 0.15 kcal/mol.

With TCGGACACGTGGCGGG, the “relative binding free energy” value was -0.15 kcal/mol.

Turning to TTTCCCACGTGTATGG, the “relative binding free energy” value worked out at 0.15 kcal/mol. The value for TGGAGCACGTGCTTAT was -0.16 kcal/mol. On to GAGTTCACGTGGATAT, for which the “relative binding free energy” value came to 0.42 kcal/mol. As to CGAGTCACGTGAAGGA, the “relative binding free energy” value amounted to 0.54 kcal/mol. Regarding ATGAGCACGTGCGAGG, the “relative binding free energy” value was -0.19 kcal/mol.

In the case of TAAATCACGTGTACGT, the “relative binding free energy” value worked out at 0.29 kcal/mol. With GGTTTCACGTGGTGCG, the “relative binding free energy” value came to 0.27 kcal/mol. For the sequence GGTGGCACGTGGCCGA, the “relative binding free energy” value is -0.26 kcal/mol. The value for GTGTCCACGTGCGGGG was -0.02 kcal/mol. Regarding GTCGGCACGTGTTGTG, the “relative binding free energy” value was -0.05 kcal/mol. In the case of GGAGTCACGTGTGTGT, the “relative binding free energy” value is 0.18 kcal/mol. For TATTGCACGTGCTGGG, the “relative binding free energy” value is -0.05 kcal/mol. The value for TAGGGCACGTGGTAAT was -0.07 kcal/mol; that for GGTAACACGTGGGTCA was -0.16 kcal/mol; that for GCGGTCACGTGGGGAT was 0.13 kcal/mol.

TTTATCACGTGGTAGT: the “relative binding free energy” value is 0.18 kcal/mol.

Consider TGCTACACGTGGGGCT, for which the “relative binding free energy” value was 0.01 kcal/mol. Regarding AGGCTCACGTGGAGTT, the “relative binding free energy” value came out at 0.21 kcal/mol. As for GATCGCACGTGTTAGT, the “relative binding free energy” value came out at 0.08 kcal/mol. As for GAGTTCACGTGTAAAG, the “relative binding free energy” value was determined as 0.38 kcal/mol. In the case of ACTTTCACGTGATGGG it was 0.29 kcal/mol; in that of AAGGGCACGTGGCGAA, -0.09 kcal/mol. In the case of TAAGGCACGTGAGATA, the “relative binding free energy” value came to 0.09 kcal/mol. As for CGTAGCACGTGGATAG, the “relative binding free energy” value was -0.03 kcal/mol. Regarding ACGTCCACGTGTTTGT, the “relative binding free energy” value was 0.03 kcal/mol. For ATAAGCACGTGGAATT, the “relative binding free energy” value was 0.07 kcal/mol.

For the sequence TTGAGCACGTGGTGTG, the “relative binding free energy” value is -0.18 kcal/mol. Take TGCGGCACGTGGGGGG: the “relative binding free energy” value was -0.23 kcal/mol.

TGGAACACGTGGCATG: the “relative binding free energy” value was -0.06 kcal/mol. As to GGTGGCACGTGGGAGG, the “relative binding free energy” value is -0.12 kcal/mol. In the case of TTCATCACGTGGTGCA, the “relative binding free energy” value came to 0.1 kcal/mol. In the case of GGGCGCACGTGGGCGT it was -0.22 kcal/mol.
